# This is one part of the list.
# B1: SCA (Schizophyllum commune) (protein)
# chain: MGIDQGVYLITNAGSGTAATLKDGYVKGWERIKGKEQLNQLWFVKSVKTSASDPGYAAFNLATNKVLDLEKGLADRGTPILGWDYHEGDNQHWVIKKQADGKYYKIQSVKTQTFVDLNNGGKDNGTKIQGWVGSWDETNSHQRWVFNQFSATGSRIKSILDTHPKIHGKVIVEWPDRIYFTPDQYIFEAIWAKTGLADIKPRDPLFQSEAYEKVFKGWVVSRAQEIIKVDGFDILVGSLSLVEKSTQKIKVLDVSVRTSDDKSPDLSQIVFFDPESGRTLVDIPEGYEVNSVII
# Columns and labels:
# Test in all cases: glycan array binding signal (z-score within array); higher = stronger binding
# Conditions in all cases: glycan notation: IUPAC condensed, linker removed
# [1] = target: Fuc(a1-2)Gal(b1-4)[Fuc(a1-3)]GlcNAc
# How it was run: (§1)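 From the Consortium for Functional Glycomics database, 3228 arrays were curated, keeping only those whose protein sequence was available. Binding is given as a within-array Z-score averaged across arrays sharing a protein sequence and across linkers. Negative Z-scores can be read as non-binding.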
# [2] = target: Fuc(a1-2)Gal(b1-4)[Fuc(a1-3)]GlcNAc(b1-2)Man(a1-3)[Fuc(a1-2)Gal(b1-4)[Fuc(a1-3)]GlcNAc(b1-2)Man(a1-6)]Man(b1-4)GlcNAc(b1-4)GlcNAc
# How it was run: as §1
# [3] = target: Fuc(a1-2)Gal(b1-4)[Fuc(a1-3)]GlcNAc(b1-2)[Fuc(a1-2)Gal(b1-4)[Fuc(a1-3)]GlcNAc(b1-4)]Man(a1-3)[Fuc(a1-2)Gal(b1-4)[Fuc(a1-3)]GlcNAc(b1-2)Man(a1-6)]Man(b1-4)GlcNAc(b1-4)GlcNAc
# How it was run: as §1
# [4] = target: Fuc(a1-2)Gal(b1-4)[Fuc(a1-3)]GlcNAc(b1-3)Gal(b1-4)[Fuc(a1-3)]GlcNAc
# How it was run: as §1
# [5] = target: Fuc(a1-2)Gal(b1-4)[Fuc(a1-3)]GlcNAc(b1-3)Gal(b1-4)[Fuc(a1-3)]GlcNAc(b1-3)Gal(b1-4)[Fuc(a1-3)]GlcNAc
# How it was run: as §1
# [6] = target: Fuc(a1-2)Gal(b1-4)[Fuc(a1-3)]GlcNAc(b1-3)GalNAc
# How it was run: as §1
# Fuc(a1-2)Gal6S(b1-4)Glc = target: Fuc(a1-2)Gal6S(b1-4)Glc
# How it was run: as §1
# [7] = target: Fuc(a1-2)Gal6S(b1-4)Glc6S
# How it was run: as §1
# [8] = target: Fuc(a1-2)Gal6S(b1-4)GlcNAc
# How it was run: as §1
# Fuc(a1-2)[Gal(a1-3)]Gal = target: Fuc(a1-2)[Gal(a1-3)]Gal
# How it was run: as §1
# [9] = target: Fuc(a1-2)[Gal(a1-3)]Gal(b1-3)GalNAc
# How it was run: as §1
# [10] = target: Fuc(a1-2)[Gal(a1-3)]Gal(b1-3)GlcNAc
# How it was run: as §1
# [11] = target: Fuc(a1-2)[Gal(a1-3)]Gal(b1-3)GlcNAc(b1-2)Man(a1-3)[Fuc(a1-2)[Gal(a1-3)]Gal(b1-3)GlcNAc(b1-2)Man(a1-6)]Man(b1-4)GlcNAc(b1-4)GlcNAc
# How it was run: as §1
# [12] = target: Fuc(a1-2)[Gal(a1-3)]Gal(b1-3)GlcNAc(b1-2)Man(a1-3)[Fuc(a1-2)[Gal(a1-3)]Gal(b1-3)GlcNAc(b1-2)Man(a1-6)]Man(b1-4)GlcNAc(b1-4)[Fuc(a1-6)]GlcNAc
# How it was run: as §1
# [13] = target: Fuc(a1-2)[Gal(a1-3)]Gal(b1-3)GlcNAc(b1-3)GalNAc
# How it was run: as §1
# [14] = target: Fuc(a1-2)[Gal(a1-3)]Gal(b1-4)Glc
# How it was run: as §1
# [15] = target: Fuc(a1-2)[Gal(a1-3)]Gal(b1-4)GlcNAc
# How it was run: as §1
# [16] = target: Fuc(a1-2)[Gal(a1-3)]Gal(b1-4)GlcNAc(b1-2)Man(a1-3)[Fuc(a1-2)[Gal(a1-3)]Gal(b1-4)GlcNAc(b1-2)Man(a1-6)]Man(b1-4)GlcNAc(b1-4)GlcNAc
# How it was run: as §1
# [17] = target: Fuc(a1-2)[Gal(a1-3)]Gal(b1-4)GlcNAc(b1-2)Man(a1-3)[Fuc(a1-2)[Gal(a1-3)]Gal(b1-4)GlcNAc(b1-2)Man(a1-6)]Man(b1-4)GlcNAc(b1-4)[Fuc(a1-6)]GlcNAc
# How it was run: as §1
# [18] = target: Fuc(a1-2)[Gal(a1-3)]Gal(b1-4)GlcNAc(b1-3)GalNAc
# How it was run: as §1
# [19] = target: Fuc(a1-2)[Gal(a1-3)]Gal(b1-4)[Fuc(a1-3)]Glc
# How it was run: as §1
# [20] = target: Fuc(a1-2)[Gal(a1-3)]Gal(b1-4)[Fuc(a1-3)]GlcNAc
# How it was run: as §1
# [21] = target: Fuc(a1-2)[Gal(a1-3)]Gal(b1-4)[Fuc(a1-3)]GlcNAc(b1-3)GalNAc
# How it was run: as §1
# [22] = target: Fuc(a1-2)[Gal(a1-4)]Gal(b1-4)GlcNAc
# How it was run: as §1
# [23] = target: Fuc(a1-2)[GalNAc(a1-3)]Gal
# How it was run: as §1
# [24] = target: Fuc(a1-2)[GalNAc(a1-3)]Gal(b1-3)GalNAc(a1-3)[Fuc(a1-2)]Gal(b1-4)GlcNAc
# How it was run: as §1
# [25] = target: Fuc(a1-2)[GalNAc(a1-3)]Gal(b1-3)GlcNAc
# How it was run: as §1
# [26] = target: Fuc(a1-2)[GalNAc(a1-3)]Gal(b1-3)GlcNAc(b1-2)Man(a1-3)[Fuc(a1-2)[GalNAc(a1-3)]Gal(b1-3)GlcNAc(b1-2)Man(a1-6)]Man(b1-4)GlcNAc(b1-4)GlcNAc
# How it was run: as §1
# [27] = target: Fuc(a1-2)[GalNAc(a1-3)]Gal(b1-3)GlcNAc(b1-2)Man(a1-3)[Fuc(a1-2)[GalNAc(a1-3)]Gal(b1-3)GlcNAc(b1-2)Man(a1-6)]Man(b1-4)GlcNAc(b1-4)[Fuc(a1-6)]GlcNAc
# How it was run: as §1
# [28] = target: Fuc(a1-2)[GalNAc(a1-3)]Gal(b1-3)GlcNAc(b1-3)GalNAc
# How it was run: as §1
binder,measurement,setting,value
B1,glycan array binding signal (z-score),[1],-0.16
same,glycan array binding signal (z-score),[2],-0.163
same,glycan array binding signal (z-score),[3],-0.159
same,glycan array binding signal (z-score),[4],-0.158
same,glycan array binding signal (z-score),[5],-0.161
same,glycan array binding signal (z-score),[6],-0.157
same,glycan array binding signal (z-score),Fuc(a1-2)Gal6S(b1-4)Glc,-0.159
same,glycan array binding signal (z-score),[7],-0.158
same,glycan array binding signal (z-score),[8],-0.161
same,glycan array binding signal (z-score),Fuc(a1-2)[Gal(a1-3)]Gal,1.38
same,glycan array binding signal (z-score),[9],-0.157
same,glycan array binding signal (z-score),[10],-0.142
same,glycan array binding signal (z-score),[11],0.006
same,glycan array binding signal (z-score),[12],-0.152
same,glycan array binding signal (z-score),[13],-0.161
same,glycan array binding signal (z-score),[14],-0.155
same,glycan array binding signal (z-score),[15],5.61
same,glycan array binding signal (z-score),[16],7.08
same,glycan array binding signal (z-score),[17],1.77
same,glycan array binding signal (z-score),[18],2.52
same,glycan array binding signal (z-score),[19],-0.163
same,glycan array binding signal (z-score),[20],-0.161
same,glycan array binding signal (z-score),[21],-0.161
same,glycan array binding signal (z-score),[22],-0.088
same,glycan array binding signal (z-score),[23],-0.159
same,glycan array binding signal (z-score),[24],-0.161
same,glycan array binding signal (z-score),[25],-0.163
same,glycan array binding signal (z-score),[26],-0.144
same,glycan array binding signal (z-score),[27],-0.16
same,glycan array binding signal (z-score),[28],-0.156

# Reference: the supplement of paper PMC8728848
